# Values of other authors as cited in patent publication US20150224177A1 (priority 2014, published 2015).
# Conditions: instability of the chemical species; cited from earlier work
smiles,measurement,value
"N#CSO [OSCN^−, hypothiocyanite]",half-life,about 24 hours
